These are yes or no findings as the source states them, for the method shown. In cells and extracts the contact can be indirect. Some binding calls cover weakened binding; strength is not graded here.
What was measured:
[1] = target: Flag-tagged full-length G2019S-LRRK2 (human) (UniProt Q5S007); assay: co-IP; V5-FADD co-expressed with Flag-tagged LRRK1, LRRK2 or LRRK2 fragments in HEK293T; lysate (20 mM HEPES pH 7.4, 150 mM NaCl, 0.1% NP-40, 2 mM EGTA, 2 mM MgCl2, 10% glycerol) on anti-Flag resin at 4 °C; eluates probed with anti-V5
[2] = target: Flag-tagged full-length WT LRRK2 (human) (UniProt Q5S007); assay: as above
[3] = target: Flag-tagged full-length G2019S-LRRK2 (human) (UniProt Q5S007); assay: co-IP; G2019S-LRRK2 and full length FADD with HA-tagged leucine zipper FADD-DD co-expressed as competitor (Suppl Fig. 9a)
[4] = target: Flag-tagged LRRK2 N-terminal fragment, amino acids 1-500 (human) (UniProt Q5S007); assay: co-IP; V5-FADD co-expressed with Flag-tagged LRRK1, LRRK2 or LRRK2 fragments in HEK293T; lysate (20 mM HEPES pH 7.4, 150 mM NaCl, 0.1% NP-40, 2 mM EGTA, 2 mM MgCl2, 10% glycerol) on anti-Flag resin at 4 °C; eluates probed with anti-V5
[5] = target: Flag-tagged ROC domain of LRRK2 (human) (UniProt Q5S007); assay: as above
[6] = target: Flag-tagged LRRK1 (human) (UniProt Q38SD2); assay: as above
[7] = target: Flag-tagged LRRK2 N-terminal fragment, amino acids 1-550 (human) (UniProt Q5S007); assay: as above
[8] = target: Flag-tagged LRRK2 N-terminal fragment, amino acids 1-575 (human) (UniProt Q5S007); assay: as above
[9] = target: Flag-tagged COR domain of LRRK2 (human) (UniProt Q5S007); assay: as above
[10] = target: Flag-tagged N-terminal domain of LRRK2 (amino acids 1-969) (human) (UniProt Q5S007); assay: as above

Protein sequences, listed by entry. Tags and fused reporters are not part of them. Lines headed by an entry give the natural chain unless they say otherwise; changes in a name come on top. Chains listed by the source or under a name are the forms on record and can include a tag or linker. Residues count along the entry.
UniProt Q5S007: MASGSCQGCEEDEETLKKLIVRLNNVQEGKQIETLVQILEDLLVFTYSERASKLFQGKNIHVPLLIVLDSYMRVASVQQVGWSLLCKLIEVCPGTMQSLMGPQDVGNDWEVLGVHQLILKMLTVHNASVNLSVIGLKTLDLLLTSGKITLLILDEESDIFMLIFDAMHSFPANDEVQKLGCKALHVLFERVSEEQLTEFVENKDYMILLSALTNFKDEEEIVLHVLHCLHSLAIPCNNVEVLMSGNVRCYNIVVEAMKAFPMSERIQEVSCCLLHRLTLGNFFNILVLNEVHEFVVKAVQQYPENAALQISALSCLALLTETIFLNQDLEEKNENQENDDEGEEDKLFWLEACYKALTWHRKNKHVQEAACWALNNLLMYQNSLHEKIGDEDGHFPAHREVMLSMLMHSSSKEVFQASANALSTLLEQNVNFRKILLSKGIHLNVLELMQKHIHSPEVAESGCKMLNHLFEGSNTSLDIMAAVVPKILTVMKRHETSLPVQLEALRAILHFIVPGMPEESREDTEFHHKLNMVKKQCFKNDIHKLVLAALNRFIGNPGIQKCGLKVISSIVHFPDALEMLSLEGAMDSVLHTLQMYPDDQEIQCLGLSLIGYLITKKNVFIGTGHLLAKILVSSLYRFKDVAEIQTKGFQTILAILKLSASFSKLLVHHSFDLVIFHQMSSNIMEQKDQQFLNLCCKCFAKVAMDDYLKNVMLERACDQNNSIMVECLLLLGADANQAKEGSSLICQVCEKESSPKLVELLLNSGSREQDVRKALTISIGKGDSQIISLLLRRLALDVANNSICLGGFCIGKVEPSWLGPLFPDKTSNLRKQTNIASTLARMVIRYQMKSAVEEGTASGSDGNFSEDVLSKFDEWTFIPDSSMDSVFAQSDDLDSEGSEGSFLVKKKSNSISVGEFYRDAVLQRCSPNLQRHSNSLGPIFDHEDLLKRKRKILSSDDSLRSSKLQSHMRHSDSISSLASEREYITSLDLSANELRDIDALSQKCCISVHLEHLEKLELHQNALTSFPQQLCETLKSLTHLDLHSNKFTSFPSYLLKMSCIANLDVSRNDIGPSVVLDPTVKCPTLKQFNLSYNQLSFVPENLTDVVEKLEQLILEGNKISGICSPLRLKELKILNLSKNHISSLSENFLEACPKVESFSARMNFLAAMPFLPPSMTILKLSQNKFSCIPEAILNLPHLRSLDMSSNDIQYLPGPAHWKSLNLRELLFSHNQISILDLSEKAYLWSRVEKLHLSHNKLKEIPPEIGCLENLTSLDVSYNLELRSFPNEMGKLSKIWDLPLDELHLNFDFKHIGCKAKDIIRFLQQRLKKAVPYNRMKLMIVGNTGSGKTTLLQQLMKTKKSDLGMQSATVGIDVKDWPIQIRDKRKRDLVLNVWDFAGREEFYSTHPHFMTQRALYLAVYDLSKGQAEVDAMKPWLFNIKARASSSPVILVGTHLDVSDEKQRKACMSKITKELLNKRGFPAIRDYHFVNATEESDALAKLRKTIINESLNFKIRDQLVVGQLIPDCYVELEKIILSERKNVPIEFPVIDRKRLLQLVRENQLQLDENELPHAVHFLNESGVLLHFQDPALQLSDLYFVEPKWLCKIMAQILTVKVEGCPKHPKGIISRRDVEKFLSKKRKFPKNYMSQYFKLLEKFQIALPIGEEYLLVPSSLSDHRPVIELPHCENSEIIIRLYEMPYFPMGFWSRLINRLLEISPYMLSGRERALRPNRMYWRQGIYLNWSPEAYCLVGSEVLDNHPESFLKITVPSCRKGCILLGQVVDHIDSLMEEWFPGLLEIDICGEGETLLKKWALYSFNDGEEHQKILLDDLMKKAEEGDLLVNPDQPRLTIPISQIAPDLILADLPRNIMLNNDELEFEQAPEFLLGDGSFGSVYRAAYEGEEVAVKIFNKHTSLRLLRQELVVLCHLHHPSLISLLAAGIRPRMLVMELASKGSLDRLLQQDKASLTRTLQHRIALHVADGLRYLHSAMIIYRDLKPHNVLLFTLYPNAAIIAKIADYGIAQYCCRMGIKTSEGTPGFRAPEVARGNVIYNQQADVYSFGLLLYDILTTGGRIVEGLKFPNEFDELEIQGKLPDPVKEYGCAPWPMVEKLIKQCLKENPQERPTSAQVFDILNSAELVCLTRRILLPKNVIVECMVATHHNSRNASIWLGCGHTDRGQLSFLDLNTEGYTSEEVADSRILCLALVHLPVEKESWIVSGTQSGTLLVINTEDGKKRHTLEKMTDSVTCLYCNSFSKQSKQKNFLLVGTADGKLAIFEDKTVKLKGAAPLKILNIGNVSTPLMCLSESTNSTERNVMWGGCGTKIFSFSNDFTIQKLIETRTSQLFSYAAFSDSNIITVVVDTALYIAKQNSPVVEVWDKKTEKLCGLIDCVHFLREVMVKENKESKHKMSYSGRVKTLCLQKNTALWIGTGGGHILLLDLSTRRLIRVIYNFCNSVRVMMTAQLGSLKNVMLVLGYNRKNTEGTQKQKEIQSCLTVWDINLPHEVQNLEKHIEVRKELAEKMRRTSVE
Flag-tagged N-terminal domain of LRRK2 (amino acids 1-969): residues 1-969 of Q5S007
Flag-tagged LRRK2 N-terminal fragment, amino acids 1-575: residues 1-575 of Q5S007
Flag-tagged LRRK2 N-terminal fragment, amino acids 1-550: residues 1-550 of Q5S007
Flag-tagged LRRK2 N-terminal fragment, amino acids 1-500: residues 1-500 of Q5S007
Flag-tagged ROC domain of LRRK2: residues 1328-1511 of Q5S007
Flag-tagged COR domain of LRRK2: residues 1546-1740 of Q5S007
UniProt Q38SD2: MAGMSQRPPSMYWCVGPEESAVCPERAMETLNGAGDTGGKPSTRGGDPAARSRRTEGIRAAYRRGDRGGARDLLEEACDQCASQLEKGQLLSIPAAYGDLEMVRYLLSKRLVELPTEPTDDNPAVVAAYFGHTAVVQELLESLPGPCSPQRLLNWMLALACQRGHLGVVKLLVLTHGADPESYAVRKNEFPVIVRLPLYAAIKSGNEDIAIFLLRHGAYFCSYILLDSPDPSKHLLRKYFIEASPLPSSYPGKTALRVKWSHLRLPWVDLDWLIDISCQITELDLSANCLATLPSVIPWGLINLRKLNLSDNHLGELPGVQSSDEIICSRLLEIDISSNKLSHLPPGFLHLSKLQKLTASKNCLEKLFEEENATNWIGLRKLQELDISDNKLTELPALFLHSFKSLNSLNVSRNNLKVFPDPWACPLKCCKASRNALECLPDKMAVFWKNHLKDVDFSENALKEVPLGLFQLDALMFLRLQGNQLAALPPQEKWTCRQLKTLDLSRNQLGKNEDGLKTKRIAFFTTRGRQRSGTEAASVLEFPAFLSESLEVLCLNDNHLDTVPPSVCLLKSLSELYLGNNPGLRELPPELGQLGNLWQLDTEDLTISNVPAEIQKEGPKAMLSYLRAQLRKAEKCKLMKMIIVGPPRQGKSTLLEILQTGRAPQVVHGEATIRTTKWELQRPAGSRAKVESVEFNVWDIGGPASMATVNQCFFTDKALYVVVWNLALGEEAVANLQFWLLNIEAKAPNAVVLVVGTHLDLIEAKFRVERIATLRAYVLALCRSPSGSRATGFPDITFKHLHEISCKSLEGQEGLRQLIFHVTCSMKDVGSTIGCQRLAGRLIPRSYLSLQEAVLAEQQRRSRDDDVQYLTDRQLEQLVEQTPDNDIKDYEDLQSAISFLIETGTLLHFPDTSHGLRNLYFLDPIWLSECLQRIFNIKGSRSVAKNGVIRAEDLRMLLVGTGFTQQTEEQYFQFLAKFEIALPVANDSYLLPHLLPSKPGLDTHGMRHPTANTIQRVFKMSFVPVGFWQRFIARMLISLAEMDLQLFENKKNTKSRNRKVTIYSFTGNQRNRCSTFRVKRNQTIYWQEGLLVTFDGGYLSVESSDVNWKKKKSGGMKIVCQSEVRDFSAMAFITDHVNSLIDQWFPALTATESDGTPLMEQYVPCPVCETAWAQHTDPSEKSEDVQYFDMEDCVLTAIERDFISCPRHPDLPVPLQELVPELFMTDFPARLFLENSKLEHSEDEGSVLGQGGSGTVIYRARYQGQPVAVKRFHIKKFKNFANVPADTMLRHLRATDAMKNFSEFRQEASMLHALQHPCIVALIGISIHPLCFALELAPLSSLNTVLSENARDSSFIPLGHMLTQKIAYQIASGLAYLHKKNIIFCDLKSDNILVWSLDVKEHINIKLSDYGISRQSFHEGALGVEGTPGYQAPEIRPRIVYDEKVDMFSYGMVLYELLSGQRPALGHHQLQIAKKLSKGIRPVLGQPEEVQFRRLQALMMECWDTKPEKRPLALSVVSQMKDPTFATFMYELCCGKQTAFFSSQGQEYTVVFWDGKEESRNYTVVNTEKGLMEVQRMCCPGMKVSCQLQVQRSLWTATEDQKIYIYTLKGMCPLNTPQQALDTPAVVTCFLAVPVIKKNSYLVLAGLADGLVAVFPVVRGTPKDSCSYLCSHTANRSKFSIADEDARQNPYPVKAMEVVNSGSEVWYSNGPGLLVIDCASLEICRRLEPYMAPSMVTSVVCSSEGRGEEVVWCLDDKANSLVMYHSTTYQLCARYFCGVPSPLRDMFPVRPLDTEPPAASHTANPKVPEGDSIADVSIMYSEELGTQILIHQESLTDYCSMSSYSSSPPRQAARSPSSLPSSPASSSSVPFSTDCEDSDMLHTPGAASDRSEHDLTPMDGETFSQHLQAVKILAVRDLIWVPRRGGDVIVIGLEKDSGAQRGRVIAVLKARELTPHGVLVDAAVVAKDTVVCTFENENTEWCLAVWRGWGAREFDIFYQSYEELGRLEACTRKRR
UniProt Q13158: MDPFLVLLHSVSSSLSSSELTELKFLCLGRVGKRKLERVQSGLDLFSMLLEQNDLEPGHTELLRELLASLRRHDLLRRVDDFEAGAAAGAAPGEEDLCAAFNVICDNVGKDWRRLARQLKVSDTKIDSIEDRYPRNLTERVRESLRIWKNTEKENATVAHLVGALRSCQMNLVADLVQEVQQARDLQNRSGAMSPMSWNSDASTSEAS

binding [1]	binding [2]	binding [3]	binding [4]	binding [5]	binding [6]	binding [7]	binding [8]	binding [9]	binding [10]	Substance
no binding	no binding	–	–	–	–	–	–	–	–	V5-tagged full-length F25R mutant FADD (from UniProt Q13158 1-208)
binds	binds	binds	no binding	no binding	no binding	binds	binds	no binding	binds	V5-tagged FADD, full-length, WT (from UniProt Q13158 1-208)

Source: publication PMC5823876
